The results in this text go back to patent publication US8877800B2, “Kappa-opiate agonists for the treatment of diarrhea-predominant irritable bowel syndrome” (Tioga Pharmaceuticals, Inc., priority 2007, dated 2014).

This test has as its system patients with IBS. The experiment in a line: Example 1: randomized, double-blind, placebo controlled 4-week on-demand asimadoline study in participants with IBS. The following applies: IBS-C; on-demand 0.5 mg p.r.n. up to 1.0 mg q.i.d., 4 weeks.

For the compound `CN(C(=O)C(c1ccccc1)c1ccccc1)[C@H](CN1CC[C@H](O)C1)c1ccccc1.Cl` [Asimadoline, N-[(1S)-2-[(3S)-3-hydroxypyrrolidin-1-yl]-1-phenylethyl]-N-methyl-2,2-diphenylacetamide, hydrochloride], the “Δ mean # stools, treatment compared to baseline” value is given as −0.1 ± 0.1.
